Measurements reported in the supplement of paper PMC12217912.
The other results are listed elsewhere or left out. Sequences were assembled here from the parent chain. Inactive controls read about 0.05.

B1: TEV protease; numbered along this chain (parent)
chain: MGESLFKGPRDYNPISSSICHLTNESDGHTTSLYGIGFGPFIITNKHLFRRNNGTLVVQSLHGVFKVKDTTTLQQHLVDGRDMIIIRMPKDFPPFPQKLKFREPQREERICLVTTNFQTKSMSSMVSDTSCTFPSGDGIFWKHWIQTKDGQCGSPLVSTRDGFIVGIHSASNFTNTNNYFTSVPKNFMELLTNQEAQQWVSGWRLNADSVLWGGHKVFMVKPEEPFQPVKEATQL

Variants of: B1
Test: raw area under fraction-flipped curve 0-4 h after induction (AUC4h, not background-subtracted), DNA-recorder readout of cleavage of the substrate (dimensionless); higher = more cleavage of the substrate by the protease variant
Settings: temperature: 34 °C; time window: 0-4 h after rhamnose induction
Description: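 In vivo DNA recorder in E. coli TOP10(DE3) ΔrhaA at 34 °C. Each TEVp single-site mutant (parent TEVp 0) is paired with a single-site variant of the 7-mer TEVs (canonical ENLYFQ|S). The substrate sits between flexible linkers in a Bxb1-sfGFP-TEVs-SsrA fusion, so cleavage stabilises Bxb1 and speeds flipping of a recombination array, read by NGS. The value is the raw area under the fraction-flipped curve over 0-4 h after rhamnose induction (AUC4h), with ≥20 reads per time point. It is not background-subtracted; inactive controls average about 0.047.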
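Further: Bxb1 expression induced with 0.2% (w/v) L-rhamnose at OD600 near 0.5, cultures sampled hourly, flipped fraction per protease–substrate barcode pair counted by paired-end Illumina sequencing.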

Variant	area with substrate ENLYFQC	area with substrate ENLYFQE	area with substrate ENLYFQI	area with substrate ENLYFQK	area with substrate ENLYFQL	area with substrate ENLYFQM	area with substrate ENLYFQP	area with substrate ENLYFQR	area with substrate ENLYFQS	area with substrate ENLYFQT
K98R	0.12	0.068	0.0568	0.0677	0.0535	0.0733	0.0801	0.0571	0.106	0.0664
T30D	0.0836			0.0676				0.0482	0.0952	0.0925
T233Y	0.103				0.0549	0.0844			0.0897	0.0753
T233P	0.161		0.0527		0.086	0.0778			0.104	
C111A	0.114							0.0542	0.104	
N116V	0.128	0.089				0.0755		0.0572	0.101	
S182C	0.0983			0.0973		0.0797	0.0558	0.0598	0.114	
S182F	0.048		0.0554	0.0394	0.0464	0.0773	0.0509	0.058	0.0539	0.0522
S182V	0.18								0.109	
S18G	0.0937		0.05	0.0506	0.0464	0.08	0.0919	0.0551	0.0957	
S158L	0.0472								0.0466	0.0322
S158V	0.065		0.0526	0.0544	0.0463	0.0644		0.0386	0.0535	0.0611
H215I	0.0883								0.0744	
F92V	0.0968		0.0652			0.101		0.0604	0.0945	
R50Y	0.157			0.0393	0.0598	0.124	0.0634		0.129	
R109T	0.0995			0.0588			0.0509		0.103	0.0702
N178Y	0.199		0.0643	0.0734	0.0761			0.0457	0.172	0.0693
G153Q	0.0425		0.0335						0.0434	0.0502

Variant	area with substrate ENLYFQC	area with substrate ENLYFQE	area with substrate ENLYFQI	area with substrate ENLYFQK	area with substrate ENLYFQL	area with substrate ENLYFQM	area with substrate ENLYFQP	area with substrate ENLYFQR	area with substrate ENLYFQS	area with substrate ENLYFQT
L190T	0.114		0.0694	0.0585	0.0601			0.067	0.113	
D91T	0.0794		0.0642			0.0794	0.059		0.0992	0.0472
F163K	0.123	0.0689	0.0612		0.046	0.0734			0.0998	0.0721
G213H					0.0562			0.0618	0.0702	0.0676
G213T	0.0695		0.0765		0.0478	0.044			0.0598	0.0564
M83L	0.0736		0.0617		0.0468	0.0933		0.0753	0.0959	0.0398
M83E	0.0583		0.061		0.0527	0.054		0.0614	0.0557	
D149I	0.0859				0.0506	0.057		0.0385	0.0791	
D149P	0.108	0.0486			0.0479				0.0936	0.0627
P228R	0.126		0.0686	0.0613	0.0584			0.0803	0.0958	0.0698
R87T	0.0784		0.0562		0.0655			0.0384	0.0758	0.0517
P222T	0.0959		0.0618		0.0733	0.0779		0.0728	0.0969	0.0757
N172Q	0.0641		0.0647		0.0429	0.0592	0.071		0.0561	
N172H			0.0079	0.0377	0.0542				0.0641	0.0611
D69F	0.0827		0.0624						0.0779	0.0294
K7V	0.0849	0.0617	0.0524		0.0635			0.0735	0.0698	0.06
G80L	0.09			0.0461	0.0633		0.103	0.0595	0.106	
L235T				0.0553	0.0589			0.0696	0.113	

Same assay, conditions: temperature: 34 °C; time window: 0-4 h after rhamnose induction

Variant	area with substrate ENLYFQV	area with substrate ENLYFQW	area with substrate ENLYFQF	area with substrate ENLYFQN	area with substrate ENLYFQY	area with substrate ENLYFQD	area with substrate ENLYFQH	area with substrate ENLYFQG	area with substrate ENLYFQA	area with substrate ENLYFQQ
K98R	0.0542	0.0805								
T30D	0.0608	0.061	0.0582	0.077	0.0698					
T233Y		0.0684		0.0536		0.0721	0.0694			
T233P		0.0702		0.0783				0.0678		
C111A									0.0822	0.0823
N116V		0.0731	0.0665		0.0744		0.0722			
S182C				0.0945				0.105		
S182F	0.0569			0.0467	0.0842		0.052	0.0445		0.0584
S182V		0.0568		0.0567						
S18G	0.0508	0.0525		0.0732	0.064	0.0772	0.0681	0.115		0.0727
S158L			0.024							
S158V	0.0447						0.0528	0.0611		
F92V	0.0491	0.0676	0.0683	0.0789			0.0809	0.0647		0.0626
R50Y		0.0844				0.067	0.071		0.123	
R109T	0.0551	0.061	0.0799	0.0757	0.0762		0.0911	0.0912		
N178Y	0.0605		0.157		0.129		0.131	0.111		
G153Q	0.0455									
L190T		0.0922						0.094		

Variant	area with substrate ENLYFQV	area with substrate ENLYFQW	area with substrate ENLYFQF	area with substrate ENLYFQN	area with substrate ENLYFQY	area with substrate ENLYFQD	area with substrate ENLYFQH	area with substrate ENLYFQG	area with substrate ENLYFQA	area with substrate ENLYFQQ
D91T		0.0879								
F163K		0.062	0.0663	0.0652			0.0724			
G213H					0.0587		0.0559		0.0652	
G213T		0.0674			0.0599		0.0584	0.0728		0.033
M83L		0.0621		0.0736		0.0828				
M83E	0.0632	0.0464			0.0607	0.0726		0.0405		
D149I		0.0404				0.0558				
D149P			0.0629			0.0429				
P228R		0.0703								0.0841
R87T	0.0611	0.0535			0.0563	0.06		0.0643		
P222T			0.0704			0.0916				
N172Q			0.0518	0.0603						
N172H		0.0032		0.0635				0.0618	0.0738	
D69F	0.0602		0.0806					0.0737	0.0445	
K7V		0.0489				0.0879	0.0617			0.0622
G80L	0.0586			0.103			0.0711			
L235T			0.101	0.0753		0.0777		0.0714	0.102	
